The values below come from the supplement of paper PMC10338343.

± gives the standard deviation. In all, about 3,000 sequences were measured (“pre-steady-state target cleavage rate”: median about 0.0079, highest 2% from about 0.2 on). The entries are a selection whose mix differs from that of the whole data set.

The experiment concerns MILI (PIWIL2) piRISC loaded with piRNA #2 (26 nt). The experiment can be described thus: pre-steady-state target cleavage rate (min^-1); MIWI and MILI are mouse PIWI proteins and EfPiwi is from a freshwater sponge; tags in brackets are library labels; higher = faster piRNA-guided slicing of the target. To be noted: guide: piRNA #2 5'p-UUAGGUAACCCAGUAGAUCCAGAGGA; auxiliary factor: 500 nM mouse GTSF1. The essentials:
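Cleave-'n-Seq used a transcribed, DNA-blocked target RNA library at 0.1 nM and active affinity-purified piRISC with one synthetic guide at 1 nM, with or without 500 nM GTSF1 partner protein, in HEPES–potassium acetate buffer at 33 °C for 0–8 or 0–960 min. Uncleaved targets were sequenced and normalised to depth and to weakly complementary targets, and three trials were pooled with k3 capped at 0.0001 min^-1. The pre-steady-state cleavage rate was estimated by a burst-and-steady-state fit.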
For CUUAAGGUCUGGAUCUACUGGGAUACCUAA, the “pre-steady-state target cleavage rate” value came out at 0.0278 ± 0.0093.
For the sequence CUUAACCUCUGGAUAUACUGGGUUACCUAA, the “pre-steady-state target cleavage rate” value was 0.158 ± 0.031.
Take CUUAAGGAGUGGUUCUACUGGGUUUCCUAA: the “pre-steady-state target cleavage rate” value was found to be 0.00611 ± 0.0051.
For CUUAAGGAGUGGAUCAACUGGGUUACCUAA, the “pre-steady-state target cleavage rate” value is 0.0147 ± 0.0066.
As for CUUAAGGAGACCAUCUACUGGUUACCUAA, the “pre-steady-state target cleavage rate” value was below 0.0001.
Turning to CUUAAGCUCUGGAUCUUCUGGGUUACCAAA, the “pre-steady-state target cleavage rate” value was found to be 0.0509 ± 0.017.
Under CUUAAGCACUGGAUCUAGUGGGUUACCUAA stands 0.0804 ± 0.013; under CUUAACCUCUGGAUGUACUGGGAUACCUAA, 0.0398 ± 0.017.
Under CUUAACCUACUGGAUCUACUGGGUUACCUAA stands 0.101 ± 0.021; under CUUAAGGUCUGGCUCUACUGGGUUACCUAA, 0.0939 ± 0.016; under CUUAACCUCUGGAUCUACUGGGUUACCGUAA, 0.103 ± 0.032.
On to CUUAUCCUCUGGAUCUACUGGGUUACCGUAA, for which the “pre-steady-state target cleavage rate” value came to 0.0831 ± 0.02.
In the case of CUUAACGUCUGGAACUACUGGGUUACCUAA, the “pre-steady-state target cleavage rate” value came to 0.103 ± 0.016.
For CUUAACCUCUCGAUCUACUGGGUUAGCUAA, the “pre-steady-state target cleavage rate” value worked out at 0.0663 ± 0.025.
For CUUAAGCUCUCGAUCUACUGGGUUACCAAA, the “pre-steady-state target cleavage rate” value amounted to 0.119 ± 0.032.
Take CUUAAGGUCUGGAUCUACUGCGUUACCUAA: the “pre-steady-state target cleavage rate” value came out at 0.0106 ± 0.0049.
As to CUUAACCCCUGGAUCUACUGGGUUACCUAA, the “pre-steady-state target cleavage rate” value turned out to be 0.0999 ± 0.017.
Regarding CUUAUCCUCUGGAUCUAGUGCGUUACCUAA, the “pre-steady-state target cleavage rate” value turned out to be 0.00427 ± 0.0028.
As to CUUAUCCUCUGGAUCUACUAGGGUUACCUAA, the “pre-steady-state target cleavage rate” value was found to be 0.00963 ± 0.0053.
In the case of CUUAAGGUCUGGAUCUACUGGUUUACCUAA, the “pre-steady-state target cleavage rate” value was determined as 0.0062 ± 0.0035.
As to CUUAAGGAGAGGAUCUACUGGGUUACCUA, the “pre-steady-state target cleavage rate” value came out at 0.0123 ± 0.0056.
For CUUAUCCUCAGGAUCAACUGGGUUACCUAA the value was 0.0489 ± 0.012; for CUUAAGGUCUGGAUGUACUGGGUUACCUAA, 0.065 ± 0.027; for CUUAAGGAGUGGAUCUACUGGGUUACCUCA, 0.0359 ± 0.012.
For CUUAACCUCUGGAUCUACUGGGUUACGAUA, the “pre-steady-state target cleavage rate” value is 0.0968 ± 0.025.
Take CUUAAGCAUCUGGAUCUACUGGGUUACCUAA: the “pre-steady-state target cleavage rate” value came to 0.153 ± 0.036.
As to CUUAUCCUCUGGAACUACAGGGUUACCUAA, the “pre-steady-state target cleavage rate” value was 0.142 ± 0.026.
For the sequence CUUAUCCUCUGGAUCUUCUGGGUUACCUUA, the “pre-steady-state target cleavage rate” value turned out to be 0.0894 ± 0.017.
Under CUUAAGGAGUGGAUCUACAGGGUUACCAAA stands 0.0277 ± 0.01; under CUUAACCUCUGGAUCUUCUGGGUUACCAAA, 0.0779 ± 0.018; under CUUAACGUCAGGAUCUACUGGGUUACCUAA, 0.0483 ± 0.017.
For CUUAACCUCUGGAUCUACUGGGUUACGCUAA, the “pre-steady-state target cleavage rate” value was determined as 0.138 ± 0.022.
Regarding CUUAUCCUCUGGAUCUACUGGGUAACCUAA, the “pre-steady-state target cleavage rate” value stood at 0.0929 ± 0.021.
Regarding CUUAACCUCUGGAUCUACUGGGGUUACCUAA, the “pre-steady-state target cleavage rate” value stood at 0.0375 ± 0.012.
As for CUUAUCCUCUGGAAGUACUGGGUUACCUAA, the “pre-steady-state target cleavage rate” value came out at 0.133 ± 0.021.
Take CUUAACCUCUGGAUCUACAGGGUAACCUAA: the “pre-steady-state target cleavage rate” value was found to be 0.0519 ± 0.016.
Under CUUAACCUGUGGAUCUACUGGGUUUCCUAA stands 0.0399 ± 0.018; under CUUAGCCUCUGGAUCUACUGGGUUACCUAA, 0.218 ± 0.05; under CUUAUCCUCAGGAUCUACAGGGUUACCUAA, 0.0828 ± 0.013.
In the case of CUUAAGGACUGGAUCUACUGGGUUACGCUAA, the “pre-steady-state target cleavage rate” value turned out to be 0.0122 ± 0.0081.
On to CUUAACCUCUCGUUCUACUGGGUUACCUAA, for which the “pre-steady-state target cleavage rate” value was found to be 0.094 ± 0.017.
Under CUUAAGCUCUGGAUCUACAGGGUUACCUAA stands 0.0647 ± 0.011.
Take CUUAAGGACUCGAUCUACUGGGUUUCCUAA: the “pre-steady-state target cleavage rate” value was 0.00553 ± 0.0038.
For CUUAAGGACUGGAUGUACUGGGUUACCUAA the value was 0.0239 ± 0.019; for CUUAAGCUCUGGAUCAUCUGGGUUACCUAA, 0.0304 ± 0.011; for CUUAAGCUCUGGAUCUACUGGGUUACCUCA, 0.0858 ± 0.025.
For CUUAAGGUCUCGAUCUACUGGGUUACGUAA the value was 0.00877 ± 0.006; for CUUAAGGUCUGGAUCUACUGGGUUACCUUAA, 0.0607 ± 0.015.
For CUUAACCUCUGCAUCUACUGGGUUACCUAA the value was 0.185 ± 0.036.
For CUUAAGGUCAGGAUCUACUGGGUUACCAAA, the “pre-steady-state target cleavage rate” value amounted to 0.0145 ± 0.0086.
For CUUAAGCUCUGGAUCUAUGGGUUACCUAA, the “pre-steady-state target cleavage rate” value worked out at 0.00978 ± 0.0041.
Take CUUAUGCUCUGGAUCUACUGGGUAACCUAA: the “pre-steady-state target cleavage rate” value was found to be 0.0539 ± 0.012.
For the sequence CUUAAGGAGAGGAUCUACUGGGUUACCUAAA, the “pre-steady-state target cleavage rate” value came to 0.0113 ± 0.006.
Regarding CUUAAGGUCUGGAUCUUCUGGGAUACCUAA, the “pre-steady-state target cleavage rate” value worked out at 0.0121 ± 0.0065.
As for “CUUAAGGAGACGAUCUACUGGGUUACCUAA [g2:g19:cont:t1A]”, the “pre-steady-state target cleavage rate” value turned out to be 0.00616 ± 0.0033.
For CUUAAGGUCUCGAUCUACUGGGUUACCUUA the value was 0.0125 ± 0.0049; for CUUAUCCUCUGGAUCUACUGGGUUACUAA, 0.16 ± 0.03.
Regarding CUUAAGCUCUGGAUCUGCUGGGUUACCUAA, the “pre-steady-state target cleavage rate” value is 0.0325 ± 0.013.
Regarding CUUAAGGAGACGAUCUACGGGGUUACCUAA, the “pre-steady-state target cleavage rate” value is 0.0104 ± 0.0052.
For CUUAACCUCUGGAUCAACUGGGUUACGUAA the value was 0.0219 ± 0.01.
On to CUUAUCCUCUGGAUCUACUGGGUUACCGAA, for which the “pre-steady-state target cleavage rate” value is 0.143 ± 0.039.
As to CUUAUCCUCUGGAUCAUACUGGGUUACCUAA, the “pre-steady-state target cleavage rate” value was 0.00499 ± 0.0038.
As for CUUAAGGUCUGGUUCUACUGGGUUACCUAA, the “pre-steady-state target cleavage rate” value came to 0.0719 ± 0.013.
As to CUUAACCGCUGGAUCUACUGGGUUACCUAA, the “pre-steady-state target cleavage rate” value is 0.0929 ± 0.016.
Under CUUAACCUCUGGAUCUACUGGGUAUACCUAA stands 0.0924 ± 0.019; under CUUAACGUCUGGAUCUACUGCGUUACCUAA, 0.0153 ± 0.006.
Regarding CUUAACCACUGGAUCUACUGGGUUACCUAA, the “pre-steady-state target cleavage rate” value was 0.104 ± 0.017.
In the case of CUUAUGGACUGGAUCUACUGGGUUACCUAA, the “pre-steady-state target cleavage rate” value amounted to 0.0559 ± 0.018.
Consider CUUAAGCUCCGGAUCUACUGGGUUACCUAA, for which the “pre-steady-state target cleavage rate” value was determined as 0.071 ± 0.024.
Take CUUAAGCUCUGGAUCUACUGGGAUACCUAA: the “pre-steady-state target cleavage rate” value is 0.0297 ± 0.0083.
As for CUUAAGCUCUGGAUCUACUGGGUUACCUA, the “pre-steady-state target cleavage rate” value was found to be 0.0941 ± 0.025.
With CUUAAGCUCUGGAUCUACUGGGUUCACCUAA, the “pre-steady-state target cleavage rate” value is 0.0506 ± 0.017.
CUUAAGGUCUGGAUCUACUGGGUGUACCUAA: the “pre-steady-state target cleavage rate” value was determined as 0.0466 ± 0.011.
CUUAACCUCUGGAUCAACAGGGUUACCUAA: the “pre-steady-state target cleavage rate” value stood at 0.0692 ± 0.011.
Under CUUAACCUCUGGAUCUACUGGGCUUACCUAA stands 0.042 ± 0.012.
For the sequence CUUAUGCUCUGGAUCUACUGGGUUACCUUA, the “pre-steady-state target cleavage rate” value was determined as 0.108 ± 0.024.
CUUAUCGUCUGGUUCUACUGGGUUACCUAA: the “pre-steady-state target cleavage rate” value worked out at 0.0848 ± 0.012.
With CUUAAGCUCUGGAUCUACUGGGUUACGCUAA, the “pre-steady-state target cleavage rate” value came to 0.121 ± 0.019.
As to CUUAAGCUCUGGAUCUACUGGGUUAGCCUAA, the “pre-steady-state target cleavage rate” value stood at 0.0977 ± 0.019.
Turning to CUUAAGGACUCGAUCUACUGGGUUAGCUAA, the “pre-steady-state target cleavage rate” value was 0.00479 ± 0.0041.
CUUAACCUCUGGAUCGACUGGGUUACCUAA: the “pre-steady-state target cleavage rate” value turned out to be 0.08 ± 0.015.
CUUAAGCUCUGGUAUCUACUGGGUUACCUAA: the “pre-steady-state target cleavage rate” value is 0.15 ± 0.038.
CUUAACCUCUGCUUCUACUGGGUUACCUAA: the “pre-steady-state target cleavage rate” value turned out to be 0.122 ± 0.027.
As to CUUAACCUCUGGAUCAACUGGGUUUCCUAA, the “pre-steady-state target cleavage rate” value worked out at 0.101 ± 0.038.
Take CUUAACGUCUGGAUCUUCUGGGUUACCUAA: the “pre-steady-state target cleavage rate” value is 0.0809 ± 0.018.
Turning to CUUAACCUCAUGGAUCUACUGGGUUACCUAA, the “pre-steady-state target cleavage rate” value is 0.0621 ± 0.021.
For CUUAACCUCUGGAACUACUGGGUUACCAAA the value was 0.0906 ± 0.032; for CUUAAGCUCUGGAUCUAGUGGGUUACCAAA, 0.0249 ± 0.0083.
Turning to CUUAAGCUCUGGAACUAGUGGGUUACCUAA, the “pre-steady-state target cleavage rate” value amounted to 0.0466 ± 0.011.
CUUAACCUCUGGAUCUACUGGGUUCACCUAA: the “pre-steady-state target cleavage rate” value amounted to 0.0871 ± 0.022.
As to CUUAUCCUCUGCAUCUACUGGCUUACCUAA, the “pre-steady-state target cleavage rate” value was 0.00387 ± 0.0038.
Under CUUAUCCUCUGUGAUCUACUGGGUUACCUAA stands 0.0855 ± 0.017.
